Measurements published in paper PMC6919601, “Identification of Plasmodium dipeptidyl aminopeptidase allosteric inhibitors by high throughput screening” (PLoS ONE, 2019).
About 230 (0.21%) of roughly 110,000 compounds showed an effect of 50% or more. Some of the results follow.

biological target: DPAP1 (Plasmodium falciparum, UniProt Q8IIJ9); experiment: primary screen, percent inhibition; read by cleavage of a fluorogenic dipeptide substrate; higher = more effect of the substance; parameters: species or system P. falciparum D10 trophozoite lysates; single well
Sequence (Q8IIJ9 whole entry, looked up): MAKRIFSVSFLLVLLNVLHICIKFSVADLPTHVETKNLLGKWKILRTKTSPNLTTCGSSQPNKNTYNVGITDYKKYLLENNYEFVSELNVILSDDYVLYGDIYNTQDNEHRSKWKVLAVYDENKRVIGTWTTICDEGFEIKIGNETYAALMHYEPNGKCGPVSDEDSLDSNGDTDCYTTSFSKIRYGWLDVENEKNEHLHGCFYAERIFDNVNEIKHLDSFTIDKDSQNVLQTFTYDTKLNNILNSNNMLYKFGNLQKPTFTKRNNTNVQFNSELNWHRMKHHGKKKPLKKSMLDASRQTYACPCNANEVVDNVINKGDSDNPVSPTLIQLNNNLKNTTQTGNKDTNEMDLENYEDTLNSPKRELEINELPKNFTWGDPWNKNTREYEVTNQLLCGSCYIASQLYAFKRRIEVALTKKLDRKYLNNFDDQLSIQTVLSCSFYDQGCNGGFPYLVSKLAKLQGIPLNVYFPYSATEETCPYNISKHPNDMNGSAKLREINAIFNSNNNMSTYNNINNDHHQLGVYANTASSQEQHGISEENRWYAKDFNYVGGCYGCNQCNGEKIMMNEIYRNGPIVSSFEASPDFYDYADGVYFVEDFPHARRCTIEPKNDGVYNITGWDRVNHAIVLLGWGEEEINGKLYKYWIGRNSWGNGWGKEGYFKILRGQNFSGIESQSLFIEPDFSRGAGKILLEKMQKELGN
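Note: 30 min substrate incubation versus DMSO and 10 µM JCP410 controls.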

Structure (SMILES) | % Inhibition @ 10 uM
CN1C(=O)C(O)(CC(=O)c2ccc3c(c2)CCCC3)c2ccccc21 (stereo not drawn) | -3.5%
O=C(O)COC(c1ccccc1F)c1ccccc1F | -7.96%
CCCN(CCO)Cc1c(F)cccc1F | 1.08%
COc1ccc(C2NC(=O)c3c(sc4c3CCCC4)N2)c(OC)c1 (stereo not drawn) | 0.147%
C=CCN(Cc1nc(-c2ccc(OC)cc2)no1)C(=O)NC1CCCCC1 | -3.49%
COc1cc(OC)c(OC)cc1CN1CCN(C(=O)c2ccc(F)cc2)CC1 | -6.4%
Cc1c(CN2CCCCC2)c(=O)n(-c2ccccc2)n1C | 5.03%
C#CC(CO)N(CCN(Cc1ccccc1)C(C#C)CO)Cc1ccccc1 (stereo not drawn) | 4.73%
Cc1cc(-c2ccccc2)nn1C(CC(=O)O)C(=O)O (stereo not drawn) | -0.467%
OCCN(Cc1ccccc1)Cc1ccc(Cl)cc1 | -6%
CCN1C(=O)S/C(=C/c2cn(C(C)C)c3ccccc23)C1=O | -5.7%
CCN(Cc1ccccc1)C(=O)CSc1nnc(C)n2c1cc1sccc12 | -10.9%
CCCc1nnc(NC(=O)CSc2ncc(-c3ccccc3)nn2)s1 | 4.54%
N#C/C(=C/c1ccccc1F)c1nc(-c2ccc([N+](=O)[O-])cc2)cs1 | 0.526%
CCOc1ccc(C2=C(C=C3C(=O)NC(=O)NC3=O)C(c3ccccc3C)c3ccccc3O2)cc1 (stereo not drawn) | 2.94%
COc1ccc(-c2cc(C(=O)Nc3ccn(Cc4ccc(C)cc4)n3)no2)cc1 | -2.65%
CCc1ccc(CNC(=O)C2CCN(c3nnc(C)c4c(C)n(-c5ccccc5)nc34)CC2)cc1 | 7.67%
COc1ccc(C(=O)N2CCN(c3cccc(Cl)c3)CC2)cc1 | -2.6%
CN(CCNC(=O)Cn1ncc2c3ccccc3nc-2c1O)Cc1ccccc1 | -2.74%
COc1ccccc1N1CCN(C(=O)c2cccc(Cl)c2)CC1 | -4.89%
CC(C)Cc1ccc(C(C)C(=O)Nc2ccccc2O)cc1 (stereo not drawn) | -5.2%
CC(=O)c1ccc(NC(=O)C(Cc2ccccc2)N2C(=O)c3ccccc3C2=O)cc1 (stereo not drawn) | -4.16%
COc1ccc(/C=C2/C(=N)N3C(c4ccccc4)=CSC3=NC2=O)cc1Br | 1.52%
Cc1cccc(C)c1N1C(=O)C2C3CCC(C3)C2C1=O (stereo not drawn) | -7.76%
N#Cc1c(NC(=O)CN2CCCCC2)sc2c1CCC2 | 2.38%
COC(=O)c1sccc1NC(=O)Cc1noc2ccccc12 | -6.66%

Structure (SMILES) | % Inhibition @ 10 uM
Cn1c(=O)c2nc(-c3ccccc3)c(-c3ccccc3)nc2n(C)c1=O | 4.03%
COC(=O)C1=C(C)NC(=O)/C1=C\c1ccccc1OCc1ccccc1 | 0.222%
CCCCc1ccc(NC(=O)c2cccnc2Cl)cc1 | 0.812%
Cc1cc2nc(O)c(O)nc2cc1S(=O)(=O)N(CC(C)C)CC(C)C | 3.06%
CCN(CCN(C)C)Cc1cccc(Cl)c1Cl | -3.57%
CCc1ccc(C2CC(c3cccc(OC)c3)Nc3ncnn32)cc1 (stereo not drawn) | -11%
Cc1nc(SCc2cccc(F)c2)nc(O)c1C#N | -7.57%
CCCc1nc2ccccc2c(=O)n1-c1ccc(OC)cc1 | -5.23%
O=C(CCCN1C(=O)CSc2ncccc21)NCCC1=CCCCC1 | -0.637%
CC(C)CSC1=NSC2=NC(=O)/C(=C\c3ccco3)C(=N)N12 | -4.65%
Cc1ccnc(NS(=O)(=O)c2ccc(N)cc2)c1 | 4.8%
Cc1cccc(Oc2ccc(NC(=O)CCC(=O)O)cc2)c1 | -2.19%
CCOCCCNc1nc2c(-c3ccccc3)nnn2c2ccccc12 | -2.92%
CC(C)NS(=O)(=O)N1CCN(c2ccncc2S(=O)(=O)N2CCOCC2)CC1 | 1.72%
Cc1cc(-c2ccc(C)c(S(=O)(=O)N3CCCN(Cc4ccc(F)cc4)C3)c2)on1 | -6.07%
Cc1ccc2c(CNCc3ccc(C)o3)c(C(=O)O)n(Cc3ccccc3)c2c1 | 2.6%
CCc1ccc(NC(=O)CSc2nc(O)cc(-c3ccccc3)n2)cc1 | 4.75%
CC(=O)N1CCC(NCc2ccc(Cl)cc2)CC1 | -2.21%
COc1cccc(C(=O)N2c3ccccc3C(Nc3ccccc3)CC2C)c1 (stereo not drawn) | -0.413%
O=C(NC1CCc2ccccc21)C1CCCN(c2cnccn2)C1 (stereo not drawn) | 8.16%
CC(C)NC(=O)C(=O)NCCc1ccccc1 | 1.29%
Cc1cc(C)cc(NS(=O)(=O)c2ccc(NC(=O)c3ccccc3C(=O)O)cc2)c1 | -4.02%
CCN(CC)CCN(C)Cc1ccc(Br)cc1 | -2.34%
Cc1ncc(CO)c2c1Oc1nc(-c3ccccc3)nc(SCC(=O)N3CCOCC3)c1C2 | 3.77%
CCOC(=O)c1c(-c2ccccc2)csc1NC(=O)CN1CCCCC1 | -1.29%
